# Measurements from the RNAGym collection of RNA variant scans (doi:10.1073/pnas.2313332121).
# Variants at the background level are over-represented here.
# B1: TPR 5TU (parent)
# chain: GGAUCUUCUCGAUCUAACAAAAAAGACAAAUCUGCCACAAAGCUUGAGAGCAUCUUCGGAUGCAGAGGCGGCAGCCUUCGGUGGCGCGAUAGCGCCAACGUUCUCAACUAUGACACGCAAAACGCGUGCUCCGUUGAAUGGAGUUUAUCAUG
# Variants of: B1
# Test: polymerase ribozyme fitness, log enrichment relative to wild type (log ratio); higher = more active; in vitro selection for triplet polymerase activity
# Summary of the method: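 A single round of triplicate in vitro selection, including frozen incubation at −7 °C, was applied to PCR-built, transcribed mutant libraries of each subunit of a heterodimeric triplet polymerase ribozyme. Illumina sequencing of input and output libraries retained genotypes with ≥10 input reads and ≥1 read per output. Fitness is the base-2 logarithm of genotype enrichment divided by wild-type enrichment, from inverse-variance-weighted replicate averages.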
row,Variant,polymerase ribozyme fitness (log ratio)
1,G58A A91U,≤ -4.2
2,G58A A97G U130G G140C U145G,≤ -4.2
3,G58A A107U G126U C149G,≤ -4.2
4,G58A A147U,0.692
5,G58A C63U G80A C93A C96U,≤ -4.2
6,G58A C75G C76U U134A,≤ -4.2
7,G58A C75U,-1.82
8,G58A C75U A91G C95G,≤ -4.2
9,G58A C75U C118G,-0.168
10,G58A C76G U139A,≤ -4.2
11,G58A C85G,-2.86
12,G58A C85G G88A G124A,≤ -4.2
13,G58A C87G,≤ -4.2
14,G58A C87U C108U A142C,-3.89
15,G58A C93A G112C,-4.12
16,G58A C95U C96G,-1.01
17,G58A C96A A97G A106C A119U,-1.42
18,G58A C99U,-0.207
19,G58A C103G U111C G117A,≤ -4.2
20,G58A C125G G141U U146C,≤ -4.2
21,G58A G59A A122G U148C,-2.64
22,G58A G59A C96A,0.0408
23,G58A G65C A73G C85G C125A G140U G152C,≤ -4.2
24,G58A G68A C87G G88U C93U A142U,≤ -4.2

row,Variant,polymerase ribozyme fitness (log ratio)
1,G58A G68A U78C C85U G143U,≤ -4.2
2,G58A G71A C116G U139G U145G,≤ -4.2
3,G58A G71U,-0.673
4,G58A G74A G94U G140U G141A,≤ -4.2
5,G58A G83A C87U U101G G141C,-3.39
6,G58A G86C G94A C95G A106G A107G A122G,≤ -4.2
7,G58A G88C G92A C96A,≤ -4.2
8,G58A G117U,1.04
9,G58A U61A G62A C87U U90A U102C C131G A138U U148C,≤ -4.2
10,G58A U61A G74U C129A U144A,≤ -4.2
11,G58A U61A G88C G133U,≤ -4.2
12,G58A U61G G92C A107C A110C G117C,≤ -4.2
13,G58A U82C G92C A110U G136A,≤ -4.2
14,G58A U90A C125G,≤ -4.2
15,G58A U90C C95U A98G A110C A113U,≤ -4.2
16,G58A U101G C132G G133C A142C,-3.72
17,G58C A60G G67A C69A G92U G112A G143C,≤ -4.2
18,G58C A60U C79A A137G U145G,≤ -4.2
19,G58C A64C C79A G117U,≤ -4.2
20,G58C A66C,≤ -4.2
21,G58C A66C C87G U139A,≤ -4.2
22,G58C A66C G86A U90A C99A C105A C116U,≤ -4.2
23,G58C A73G C85G,-2.21
24,G58C A73G C87G A113G,≤ -4.2

row,Variant,polymerase ribozyme fitness (log ratio)
1,G58C A73G G88A C114U U151C,≤ -4.2
2,G58C A89U C95A G126U,-0.892
3,G58C A91C C125G,≤ -4.2
4,G58C A91U C125A,≤ -4.2
5,G58C A107C,-4.06
6,G58C A107C A150U,≤ -4.2
7,G58C A119C,-0.0646
8,G58C A122U A142G G143A,-4.05
9,G58C A137G G140C,≤ -4.2
10,G58C C69A A73C,≤ -4.2
11,G58C C72U A98G,0.461
12,G58C C72U G80C G124A G133U U139G G140U C149U,≤ -4.2
13,G58C C75G C76G C85U,≤ -4.2
14,G58C C79G A107G,≤ -4.2
15,G58C C79U C85A G88U C96U A110G,≤ -4.2
16,G58C C79U C85U C93U A113G,≤ -4.2
17,G58C C85A,-3.71
18,G58C C85A G133U G143U,≤ -4.2
19,G58C C87A U127G,≤ -4.2
20,G58C C87G U144C,≤ -4.2
21,G58C C87U C95U C114A G143A,≤ -4.2
22,G58C C87U U135A,-2.15
23,G58C C93G U127A C131U U146C,≤ -4.2
24,G58C C93U G94A G128A A137U U139G,≤ -4.2

row,Variant,polymerase ribozyme fitness (log ratio)
1,G58C C96U,-1.02
2,G58C C96U A150G,-0.919
3,G58C G59A A60G A106G A107C,≤ -4.2
4,G58C G59C C85G A98G G112C A122U G143A,≤ -4.2
5,G58C G59U G70C C85U A121U U139A,≤ -4.2
6,G58C G59U G81U C87G,≤ -4.2
7,G58C G62C C95G,-3.72
8,G58C G68A,-3.97
9,G58C G68C C85A U102C A121G U127C,≤ -4.2
10,G58C G70C C87A,≤ -4.2
11,G58C G71A G86A C118G,≤ -4.2
12,G58C G80C A91G C96A,≤ -4.2
13,G58C G83A G84U G92U U135A U139G G141A,≤ -4.2
14,G58C G83C G84A C93A C118A U135G,≤ -4.2
15,G58C G83C G117C,-0.409
16,G58C G83U,-2.88
17,G58C G84U A97U,-3.58
18,G58C G86C A89U,-3.91
19,G58C G86U U102A A138G,≤ -4.2
20,G58C G88A U90A A98G A115G,≤ -4.2
21,G58C G94A,-0.64
22,G58C G126U U145G,-3.82
23,G58C G140C,-4.02
24,G58C G143A,-0.724

row,Variant,polymerase ribozyme fitness (log ratio)
1,G58C U61A A64U U77A C95G U102C,≤ -4.2
2,G58C U61A A73G A91U A120C,≤ -4.2
3,G58C U61C G86C C95U U144A,≤ -4.2
4,G58C U78G C85G A106U A113G U144C,≤ -4.2
5,G58C U82A G143C,-1.86
6,G58C U82G C99G,-1.45
7,G58C U82G C132A,-2.83
8,G58C U102A C114A,-4.12
9,G58C U111G C116A A137C,≤ -4.2
10,G58C U139C,-3.3
11,G58U A64G C85A C105A A107C A119C U134C,≤ -4.2
12,G58U A89G,-0.659
13,G58U A110G A113U G136U,≤ -4.2
14,G58U A142C,-0.408
15,G58U A150C,-3.57
16,G58U C63G A142C,-1.41
17,G58U C85A C95G C96U,-3.24
18,G58U C85U G117A A121G G136U G143C,≤ -4.2
19,G58U C95A C149U,-0.828
20,G58U C95U,-0.414
21,G58U C105U U134A A137U U144A,≤ -4.2
22,G58U G65U C69A G136U A137U,≤ -4.2
23,G58U G67C C72U A73U C99U,≤ -4.2
24,G58U G67U G84U A97U G117A G126A G141A A150G,≤ -4.2

row,Variant,polymerase ribozyme fitness (log ratio)
1,G58U G68A C95U,-4.01
2,G58U G86A U130C,0.803
3,G58U G94U G140U,-3.9
4,G58U G133A G140C,≤ -4.2
5,G58U G141A,1.05
6,G58U G152U,-2.71
7,G58U U61A A91G G94A,≤ -4.2
8,G58U U61C G88A U127C C131G,≤ -4.2
9,G58U U77G G80A U82C C85U U90A A110C,≤ -4.2
10,G58U U82A C116U,0.803
11,G59A A60C,-1.48
12,G59A A60C C87U G100U C103G C116U C125A G143A,≤ -4.2
13,G59A A60C G80U A147C,≤ -4.2
14,G59A A60G C99G A107C,≤ -4.2
15,G59A A60U C75G U90G,≤ -4.2
16,G59A A64C C69U,≤ -4.2
17,G59A A66C C69G C85G,≤ -4.2
18,G59A A73G U90C C93G C131U U144G,≤ -4.2
19,G59A A89U,-0.162
20,G59A A110U,-3.64
21,G59A A137U G141C,-3.95
22,G59A C69A G86U A89C C95G,≤ -4.2
23,G59A C69G A91C,≤ -4.2
24,G59A C72A U135A G143C,≤ -4.2

row,Variant,polymerase ribozyme fitness (log ratio)
1,G59A C76G,≤ -4.2
2,G59A C76G U90G C99G,≤ -4.2
3,G59A C79G C93G A98G,≤ -4.2
4,G59A C85A A115G C123U,-2.65
5,G59A C85G C99U A120G,≤ -4.2
6,G59A C85G C123G U127G,≤ -4.2
7,G59A C85G G126U,-2.21
8,G59A C85U A113U G133C U151A,≤ -4.2
9,G59A C87U,-1.42
10,G59A C93U,-3.33
11,G59A C95U C103G,-2.47
12,G59A C99G,-1.14
13,G59A C103A A107U A110U U111A C118A A138G,≤ -4.2
14,G59A C123A,-0.0504
15,G59A C125A,0.12
16,G59A C129A C131G,≤ -4.2
17,G59A G62C C108U,≤ -4.2
18,G59A G67A G86C C96G G140U U144C A147U,≤ -4.2
19,G59A G68C C75G G83C A91C C114A A147C,≤ -4.2
20,G59A G70U C93G A113U,≤ -4.2
21,G59A G71A G117C,-3.56
22,G59A G74A A91G C118G,≤ -4.2
23,G59A G74U C93G C96U,≤ -4.2
